Laboratory results: the RNAGym collection of RNA variant scans (doi:10.1073/pnas.2313332121)
This sample is rich in variants without activity.

B1: TPR 5TU (parent)
chain: GGAUCUUCUCGAUCUAACAAAAAAGACAAAUCUGCCACAAAGCUUGAGAGCAUCUUCGGAUGCAGAGGCGGCAGCCUUCGGUGGCGCGAUAGCGCCAACGUUCUCAACUAUGACACGCAAAACGCGUGCUCCGUUGAAUGGAGUUUAUCAUG

Variants of: B1
Assay: polymerase ribozyme fitness, log enrichment relative to wild type (log ratio); higher = more active; in vitro selection for triplet polymerase activity
How it was run: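 Each subunit of a heterodimeric triplet polymerase ribozyme was mutagenized into a library by PCR, transcribed, and subjected to one round of in vitro selection, run in triplicate. Libraries were annealed with a biotinylated primer, the partner subunit and triplets, incubated frozen at −7 °C, and extended constructs were gel-excised, captured on streptavidin beads and recovered by RT-PCR. Input and output libraries were sequenced on Illumina, keeping genotypes with ≥10 input reads and ≥1 read per output. Fitness is log base 2 of genotype enrichment divided by wild-type enrichment, from inverse-variance-weighted replicate averages.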
For A24G U45A C54G G58C C93U, the “polymerase ribozyme fitness (log ratio)” value was at most -4.2.
In the case of A26G A29U G58U U61A C76U A91G A120U, the “polymerase ribozyme fitness (log ratio)” value is reported as at most -4.2.
For G25A A29C, the “polymerase ribozyme fitness (log ratio)” value was at most -4.2.
For A24G G74A C93G G140C U151G, the “polymerase ribozyme fitness (log ratio)” value was at most -4.2.
With G25C A39C C76A C79U C87A A110U C114U the “polymerase ribozyme fitness (log ratio)” value was at most -4.2.
For G25C C27G A41C C51U A52G A64C C95A G141U, the “polymerase ribozyme fitness (log ratio)” value was at most -4.2.
For A26C A52U C54U G58A G71A G74C C87U C108A, the “polymerase ribozyme fitness (log ratio)” value was at most -4.2.
For A24U A49C G65C U77C G83A G86A U135A, the “polymerase ribozyme fitness (log ratio)” value was at most -4.2.
With A24G A26C A60G G83A the “polymerase ribozyme fitness (log ratio)” value was at most -4.2.
In the case of G25C G42C A60G U61A G88A, the “polymerase ribozyme fitness (log ratio)” value is reported as at most -4.2.
In the case of G25C C32A G48A C79U G92A C93U A107C C132A A137C, the “polymerase ribozyme fitness (log ratio)” value is reported as at most -4.2.
With A26C U56A C76A U77G C87G C132G the “polymerase ribozyme fitness (log ratio)” value was at most -4.2.
In the case of G25C A150C, the “polymerase ribozyme fitness (log ratio)” value is reported as -3.47.
In the case of A26C A37U G48A C79A G143C, the “polymerase ribozyme fitness (log ratio)” value is reported as at most -4.2.
With G25A G46U C75A G80U C85U U90G G128C the “polymerase ribozyme fitness (log ratio)” value was at most -4.2.
With A26C C75G U90G the “polymerase ribozyme fitness (log ratio)” value was at most -4.2.
For A26G C69U C79U C87U A91U, the “polymerase ribozyme fitness (log ratio)” value was at most -4.2.
With A24U A28C G59A C85G A97G A121G G133A U139G A150G the “polymerase ribozyme fitness (log ratio)” value was at most -4.2.
For A24U A40C A49C C72G G83U C87G U139G U144C U151G, the “polymerase ribozyme fitness (log ratio)” value was at most -4.2.
With A24U A64G C72U U102G U151C the “polymerase ribozyme fitness (log ratio)” value was at most -4.2.
For A24G C79U A91G A107G, the “polymerase ribozyme fitness (log ratio)” value was at most -4.2.
With G25C G58U A73G C95U G141C the “polymerase ribozyme fitness (log ratio)” value was at most -4.2.
With G25A A39G G74A U82G C87G U101C the “polymerase ribozyme fitness (log ratio)” value was at most -4.2.
With A24G C87U U146A the “polymerase ribozyme fitness (log ratio)” value was at most -4.2.
In the case of A24C G25U A52G C85A G141C, the “polymerase ribozyme fitness (log ratio)” value is reported as at most -4.2.
With A24G C35G G50C G80U G86U C118G A138G the “polymerase ribozyme fitness (log ratio)” value was at most -4.2.
With A24C C54U G86A C87G C123U U130C G143C the “polymerase ribozyme fitness (log ratio)” value was at most -4.2.
With A26C U82A C95A the “polymerase ribozyme fitness (log ratio)” value was -2.
For A26C C35U U55A C76U C87G G92U A98G, the “polymerase ribozyme fitness (log ratio)” value was -3.11.
For A24U C32A, the “polymerase ribozyme fitness (log ratio)” value was -3.85.
With A24G U53A U61A G84C C125U the “polymerase ribozyme fitness (log ratio)” value was at most -4.2.
In the case of A26C C72U U82A G84A U101G, the “polymerase ribozyme fitness (log ratio)” value is reported as at most -4.2.
In the case of G25C A26U C87G A121U C129G U151A, the “polymerase ribozyme fitness (log ratio)” value is reported as at most -4.2.
For A26C A29C G65A C87G A97G A142G, the “polymerase ribozyme fitness (log ratio)” value was at most -4.2.
In the case of G25A A47U G58C G92A, the “polymerase ribozyme fitness (log ratio)” value is reported as at most -4.2.
For A24U A26C A40C A73U G88C C108U, the “polymerase ribozyme fitness (log ratio)” value was at most -4.2.
With G25C A52C G58C G62U U78G U82C C93A C125G the “polymerase ribozyme fitness (log ratio)” value was at most -4.2.
In the case of G25U C43U G67U C96G C99U U104G A119C, the “polymerase ribozyme fitness (log ratio)” value is reported as at most -4.2.
With A26C C27U the “polymerase ribozyme fitness (log ratio)” value was -2.8.
In the case of A26C C32G U56G C99G C105G A120G, the “polymerase ribozyme fitness (log ratio)” value is reported as at most -4.2.
With A24G U31G G46U C72U C79G C95U U101G A142G the “polymerase ribozyme fitness (log ratio)” value was at most -4.2.
With A26G C32G C35U C57U C63A A120C U135G U146A the “polymerase ribozyme fitness (log ratio)” value was at most -4.2.
For G25C A52G C54U C63A C116U U135C, the “polymerase ribozyme fitness (log ratio)” value was at most -4.2.
In the case of A26G C27G C36G G71A C75U C96A C129G, the “polymerase ribozyme fitness (log ratio)” value is reported as at most -4.2.
For A26C C36A U44G A73U G92U, the “polymerase ribozyme fitness (log ratio)” value was at most -4.2.
In the case of G25C G48C G84A G141U, the “polymerase ribozyme fitness (log ratio)” value is reported as at most -4.2.
In the case of G25U A39U U55A U102C U109G C114U A120U A122G U144G, the “polymerase ribozyme fitness (log ratio)” value is reported as at most -4.2.
In the case of A24U C35G A89G U90C C105A A107G, the “polymerase ribozyme fitness (log ratio)” value is reported as at most -4.2.
With A24G A37U G58A U77C G84A C85G the “polymerase ribozyme fitness (log ratio)” value was at most -4.2.
In the case of A24C A91U G100U, the “polymerase ribozyme fitness (log ratio)” value is reported as at most -4.2.
In the case of A24G C96U A120G, the “polymerase ribozyme fitness (log ratio)” value is reported as at most -4.2.
In the case of A26G C85A U135G A147G, the “polymerase ribozyme fitness (log ratio)” value is reported as at most -4.2.
With A24U A47C G86A G94C C118U A137G the “polymerase ribozyme fitness (log ratio)” value was at most -4.2.
In the case of A26C C85U, the “polymerase ribozyme fitness (log ratio)” value is reported as -1.86.
For A24G G84U C87G G88U, the “polymerase ribozyme fitness (log ratio)” value was at most -4.2.
For A26C G92A C103U A106G G141C U145C, the “polymerase ribozyme fitness (log ratio)” value was at most -4.2.
With G25U C54A G80A the “polymerase ribozyme fitness (log ratio)” value was -4.05.
With A24G G42C U82A A107G A113G the “polymerase ribozyme fitness (log ratio)” value was at most -4.2.
In the case of G25U C35U C85A U130G, the “polymerase ribozyme fitness (log ratio)” value is reported as at most -4.2.
For A24U G25C U56C G59A C75G C99A C103G U145G, the “polymerase ribozyme fitness (log ratio)” value was at most -4.2.
In the case of A24U U135C, the “polymerase ribozyme fitness (log ratio)” value is reported as -2.21.
With A24U C85U the “polymerase ribozyme fitness (log ratio)” value was -0.914.
With G25C G48C G86U the “polymerase ribozyme fitness (log ratio)” value was at most -4.2.
In the case of G25C U44A C51A G74C U111G U127G G141C, the “polymerase ribozyme fitness (log ratio)” value is reported as at most -4.2.
For A24C G88U C95G C96U, the “polymerase ribozyme fitness (log ratio)” value was at most -4.2.
With A24U A41G U53G G124C C131U the “polymerase ribozyme fitness (log ratio)” value was -1.4.
With A24U G42A C108U the “polymerase ribozyme fitness (log ratio)” value was 1.52.
In the case of G25C A40C G67U C72G C85U A106G G133A A137C, the “polymerase ribozyme fitness (log ratio)” value is reported as at most -4.2.
With G25A C85U C93U C116A C125G U151G the “polymerase ribozyme fitness (log ratio)” value was at most -4.2.
With A24C C85A G143C U146A the “polymerase ribozyme fitness (log ratio)” value was at most -4.2.
In the case of A26C C51A G92A G112U C118A, the “polymerase ribozyme fitness (log ratio)” value is reported as at most -4.2.
In the case of A24U G86A, the “polymerase ribozyme fitness (log ratio)” value is reported as -1.43.
With A24U U55A C87U G92U the “polymerase ribozyme fitness (log ratio)” value was -3.1.
In the case of G25U G42C C85U C95U, the “polymerase ribozyme fitness (log ratio)” value is reported as at most -4.2.
For A24U A40G A52C A64G C87A A115C C125G, the “polymerase ribozyme fitness (log ratio)” value was at most -4.2.
In the case of G25C C35G C96G A115C C132U, the “polymerase ribozyme fitness (log ratio)” value is reported as at most -4.2.
For A24G C85A, the “polymerase ribozyme fitness (log ratio)” value was -2.96.
For A24G C85G, the “polymerase ribozyme fitness (log ratio)” value was at most -4.2.
In the case of A26C G84C C108G G133A, the “polymerase ribozyme fitness (log ratio)” value is reported as at most -4.2.
With G25U A29C C35A A40C the “polymerase ribozyme fitness (log ratio)” value was at most -4.2.
With A24C U53A U55A A98U G126A C149G the “polymerase ribozyme fitness (log ratio)” value was at most -4.2.
With A24U G94A A97U U151C the “polymerase ribozyme fitness (log ratio)” value was at most -4.2.
For A24G G86U, the “polymerase ribozyme fitness (log ratio)” value was -3.77.
